# Measurements reported in PubChem BioAssay (Tox21).
# Values joined by “and” are separate entries in the source; they are usually repeats but may differ in a detail not shown here. Equal entries are not always repeated. The inconclusive results got no clear call from the source; some entries with a clear call stand among them for comparison. Where the call is inconclusive, the potency comes from a doubtful curve fit. Active and inactive are the calls of the source. Calls come from the whole dose curve; as a rule, active = well fitted cell-killing curve with a large enough effect in the repeat runs; inconclusive = weak or mixed curves; inactive = flat fitted curve, though single readings scatter.
# Assay: qHTS assay to identify small molecule antagonists of the estrogen related receptor (ERR) signaling pathway from Tox21 library - cell viability counter screen (AID 1224834); note: nearly all actives have a fitted effect of over 30% in size
# Conditions: ERR reporter cells viability, CellTiter-Fluor, 17.5 h; series mostly up to 92.4 µM
# Method in brief: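 Compounds in DMSO were pinned onto ERR cells that had been incubated for 6 h, and the plates were held at 37 C for 17.5 h. CellTiter-Fluor reagent was then added and fluorescence was measured after 30 min.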
# % is set by controls: 0 for no effect and ±100 for the full control effect; potency is the fitted concentration of half-maximal effect; tags give direction and shape of the fitted curve.
SMILES,Potency,"viability change, negative = cytotoxic"
COc1cc(NCc2ccc3nc(N)nc(N)c3c2C)cc(OC)c1OC,"inconclusive: 0.0668 µM [cytotoxic, full curve]",–
CN(C)c1ccc(O)c2c1C[C@H]1C[C@H]3[C@H](N(C)C)C(=O)C(C(N)=O)=C(O)[C@@]3(O)C(=O)C1=C2O,"inconclusive: 61.1 µM [cytotoxic] and inconclusive: 21.1 µM [cytotoxic, partial curve]",–
O=C(O)c1cc(-c2ccc(F)cc2F)ccc1O,"inconclusive: 26.6 µM [cytotoxic, partial curve, poor fit]",–
S=C([S-])NCCNC(=S)[S-].S=C([S-])NCCNC(=S)[S-].[Mn+2].[Zn+2],"inconclusive: 26.6 µM [cytotoxic, partial curve]",–
CC(=O)Oc1cccc2c1C(=O)c1c(OC(C)=O)cc(C(=O)O)cc1C2=O,active: 29.8 µM,–
Nc1ccc(S(=O)(=O)Nc2ccccc2)cc1,inactive,–
CCCc1ccccc1O,inactive,–
C/C=C(\C)C(=O)OCCC(C)CCC=C(C)C (stereo not drawn),inactive,–
CC(C)(N=C=O)c1cccc(C(C)(C)N=C=O)c1,"inconclusive: 68 µM [cytotoxic, partial curve]",–
COc1ccc(N)c([N+](=O)[O-])c1,"inconclusive: 30.6 µM [cytotoxic, full curve]",–
CC(C)N1C(=O)c2ccccc2C1=O,inactive,–
CC1=CC(=O)CC(C)(C)C1(O)/C=C/C(C)=C\C(=O)O (stereo not drawn),inactive,–
CC(C)NCC(O)COc1cccc2ccccc12 (stereo not drawn),"inconclusive: 61.8 µM [cytotoxic, partial curve]",–
Nc1nc(F)nc2c1ncn2[C@@H]1O[C@H](CO)[C@@H](O)[C@@H]1O,inactive,–
OC[C@@H](O)[C@@H](O[C@@H]1O[C@H](CO)[C@H](O)[C@H](O)[C@H]1O)[C@H](O)[C@@H](O)CO,inactive,–
CCCCCSCCCCC,inactive,–
O=c1[nH]c(=O)c2[nH]c(=O)[nH]c2[nH]1,–,inactive: -1.5% [at 8.39 µM]
O=C(OCCOCCO)c1ccccc1Nc1cccc(C(F)(F)F)c1,"inconclusive: 33.5 µM [cytotoxic, single point]",–
O=C(O)C[C@H](O)C[C@H](O)/C=C/c1c(C2CC2)nc2ccccc2c1-c1ccc(F)cc1,–,inactive: 0.576% [at 19 µM]

SMILES,Potency,"viability change, negative = cytotoxic"
COc1cc(S(=O)(=O)O)c(C)cc1N=Nc1c(O)ccc2cc(S(=O)(=O)O)ccc12,active: 27.3 µM,–
CC1(C)[C@@H](O)CC[C@]2(C)[C@H]3C(=O)C=C4[C@@H]5C[C@@](C)(C(=O)O)CC[C@]5(C)CC[C@@]4(C)[C@]3(C)CC[C@@H]12,"inconclusive: 60.4 µM [cytotoxic, partial curve, poor fit]",–
CCc1oc2ccccc2c1C(=O)c1cc(Br)c(O)c(Br)c1,"inconclusive: 33.5 µM [cytotoxic, single point]",–
O=C1c2ccccc2C(=O)c2c1ccc(O)c2O,"inconclusive: 33.5 µM [cytotoxic, partial curve]",–
C[C@]12CC[C@@H]3c4ccc(O)cc4CC[C@H]3[C@@H]1CC[C@H]2O,"inconclusive: 8.78 µM [cytotoxic, full curve] and inconclusive: 48.6 µM [cytotoxic, partial curve]",–
O=C1c2ccccc2C(=O)c2c(O)c(O)cc(O)c21,active: 30.6 µM,–
CCOC(=O)C1=C(C)NC(C)=C(C(=O)OC)C1c1cccc([N+](=O)[O-])c1 (stereo not drawn),"inconclusive: 7.5 µM [cytotoxic, single point]",–
NC(=O)NS(=O)(=O)c1ccc(N)cc1,"inconclusive: 33.5 µM [rising, partial curve, poor fit]",–
COC(=O)C1=C(C)NC(C)=C(C(=O)OCCN2CCN(C(c3ccccc3)c3ccccc3)CC2)C1c1cccc([N+](=O)[O-])c1 (stereo not drawn),active: 11.9 µM,–
O=C1N=C(O)CN1/N=C/c1ccc(-c2ccc([N+](=O)[O-])cc2)o1,active: 43.3 µM and active: 26.6 µM,–
CN1CCCCC1CCN1c2ccccc2Sc2ccc(S(C)=O)cc21 (stereo not drawn),"inconclusive: 33.5 µM [cytotoxic, single point]",–
NCCCN1CCN(CCCN)CC1,inactive,–
CCCCCCCCCCCCCCCO,"inconclusive: 69.1 µM [cytotoxic, partial curve, poor fit]",–
CCCCOCCO,inactive,–
CC/C=C\C/C=C\C/C=C\CCCCCCCC(=O)OC,"inconclusive: 61.1 µM [cytotoxic, partial curve]",–
c1cc[c]([Bi]([c]2ccccc2)[c]2ccccc2)cc1,inconclusive: 43.3 µM [cytotoxic],–
O=C(OCC1CO1)C1CCCCC1C(=O)OCC1CO1 (stereo not drawn),inconclusive: 68.7 µM [cytotoxic],–
NCC1(Cc2noc(=O)[nH]2)CCCCC1,inactive,–
CC1=C(/C=C/C(C)=C\C=C\C(C)=C\C(=O)O)C(C)(C)CCC1,active: 54.5 µM,–
